{"source": "PubChem BioAssay AID686970", "about": "(National Center for Advancing Translational Sciences (NCATS), 2013)", "note": "Out of some 360,000 compounds screened, about 6,000 (1.7%) were called active. The shares of active, inactive and inconclusive entries below differ from those in the screen. Calls follow the shape of the dose curve; as a rule, active = well fitted cell-killing curve with a large enough effect; inconclusive = small, poorly fitted or top-dose-only effect, or effect the other way; inactive = flat fitted curve, though single readings scatter. Potencies of inconclusive entries are left out as doubtful fits. Potency is read from the fitted curve at half-maximal effect; tags tell the direction and shape of the fitted curve.", "data": [{"experiment": "qHTS for induction of synthetic lethality in tumor cells producing 2HG: qHTS for the HT-1080-NT fibrosarcoma cell line;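 also: NT is the 2HG producing partner of a matched IDH1 knockdown line; nearly all actives have a fitted effect of over 55% in size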;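 as to activity, negative = less viability: 0% = DMSO-treated cells and -100% = media-only wells without cells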", "conditions": "HT-1080-NT fibrosarcoma viability, CellTiter-Glo ATP luminescence, 48 h; activity, negative = less viability: at 46.1 µM (top of the series) unless noted", "summary_of_the_method": "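HT-1080-NT; 750 cells/well; 5% FBS RPMI; 48 h compound, 37 degrees C; CellTiter-Glo luminescence; curve fitting and curve-class assignment.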", "values": [{"smiles": "O=C(Nc1cccc2ccccc12)OC1C=CS(=O)(=O)C1", "note": "(stereo not drawn)", "Potency": "active: 18.4 µM"}, {"smiles": "COC(=O)Cc1c(C)c2ccc(OCC(=O)N(C)C)cc2oc1=O", "activity, negative = less viability": "inconclusive: 34.6%"}, {"smiles": "C=CC(=O)N1c2ccccc2Sc2ccc(NC(=O)OCC)cc21", "Potency": "inconclusive [cytotoxic, single point]"}, {"smiles": "CC(=O)NCC1(O)CCCC(C)C1", "note": "(stereo not drawn)", "activity, negative = less viability": "inconclusive: 37.4%"}, {"smiles": "CCOc1ccccc1NS(=O)(=O)c1ccc(-c2cnc(C3CC3)o2)cc1", "Potency": "active: 0.206 µM"}, {"smiles": "Cc1c(OCc2ccccc2)c(=O)ccn1Cc1ccc(Cl)cc1", "Potency": "inconclusive [cytotoxic, single point]"}, {"smiles": "CCCn1c(=N)n(CC(=O)c2ccc(Cl)cc2)c2ccccc21", "Potency": "inconclusive [cytotoxic, single point]"}, {"smiles": "C/C(=N\\NC(=O)c1cc(C)nc2ccccc12)c1cccs1", "Potency": "inconclusive [cytotoxic, single point]"}, {"smiles": "Cc1[nH]n(-c2ccccc2)c(=O)c1N=Nc1cccc(Cl)c1", "activity, negative = less viability": "inconclusive: 33%"}, {"smiles": "Cc1cc(C)nc(NN=CC2=C(N3CCOCC3)/C(=C/c3ccc(Cl)cc3)CC2)n1", "Potency": "inconclusive [cytotoxic, single point]"}, {"smiles": "COC(=O)CN1C(=O)COc2ccc(S(=O)(=O)NCc3ccccc3)cc21", "activity, negative = less viability": "inactive: 2.61%"}, {"smiles": "Cn1c(NCc2ccc(Cl)cc2)nc2ccccc21", "Potency": "inconclusive [cytotoxic, partial curve]"}, {"smiles": "Cc1cc(NC(=O)COc2ccccc2C)ccc1NC(=O)c1cccs1", "activity, negative = less viability": "inactive: -12.2%"}, {"smiles": "COc1ccc(/C=C2/C(=O)OCc3cc(OC)c(OC)cc32)c(OC)c1", "Potency": "inconclusive [cytotoxic, single point]"}, {"smiles": "COc1ccc(C(C)(O)c2nc(-c3csc4ccccc34)cs2)cc1", "note": "(stereo not drawn)", "Potency": "inconclusive [cytotoxic, partial curve]"}, {"smiles": "COC(=O)c1c(C)oc2ccc(N(C(=O)c3ccncc3)S(=O)(=O)c3ccc(C)cc3)cc12", "Potency": "active: 2.59 µM"}, {"smiles": "COc1ccc(CN2C3CCCC2CC(NC(=O)Nc2cccc(C)c2)C3)cc1", "note": "(stereo not drawn)", "Potency": "inconclusive [cytotoxic, single point]"}, {"smiles": "Cc1ccc(C(C(=O)NC2CCCCC2)N(C(=O)Cc2c[nH]c3ccccc23)c2ccccc2)o1", "note": "(stereo not drawn)", "Potency": "inconclusive [cytotoxic, partial curve, poor fit]"}, {"smiles": "COc1ccc(-c2n[nH]c(C)c2-c2ccc(OC)c(OC)c2)c(O)c1", "Potency": "inconclusive [cytotoxic, partial curve]"}, {"smiles": "Cc1cc(C)n(C(C)CNC(=O)c2ccc3c(c2)OCO3)n1", "note": "(stereo not drawn)", "activity, negative = less viability": "inactive: 1.03%"}, {"smiles": "CCCCOC(=O)C1=C(C)Nc2nnnn2C1c1ccccc1Cl", "note": "(stereo not drawn)", "Potency": "inconclusive [cytotoxic, single point]"}, {"smiles": "CC(C)(C)C(=O)Cn1c(=N)n(Cc2ccccc2)c2ccccc21", "Potency": "inconclusive [cytotoxic, partial curve]"}, {"smiles": "C/C(=N\\NC(=O)c1cc(C)oc1C)c1ccc2c(c1)OCO2", "Potency": "inconclusive [rising, single point]"}, {"smiles": "COc1cccc(NC(=O)C2(C)CCN2C(=O)Cc2ccc(-c3ccccc3)cc2)c1", "note": "(stereo not drawn)", "Potency": "inconclusive [cytotoxic, partial curve, poor fit]"}, {"smiles": "N#Cc1ccccc1NC(=O)C1SC(=Nc2ccccc2)C(C(=O)Nc2ccc(Cl)cc2)=C1N", "note": "(stereo not drawn)", "activity, negative = less viability": "inactive: -22%"}, {"smiles": "Cc1c(C)n(C)c2ccc(C(=O)NCCCN3CCN(c4ccc(F)cc4)CC3)cc12", "Potency": "inconclusive [cytotoxic, single point]"}, {"smiles": "CC(=O)C1=NN(c2ccccc2)C(c2cccs2)N1c1ccc(N(C)C)cc1", "note": "(stereo not drawn)", "Potency": "active: 7.08 µM"}, {"smiles": "CC(=O)N1CCN(S(=O)(=O)c2cccc(C(=O)NCCC3=CCCCC3)c2)CC1", "activity, negative = less viability": "inconclusive: -5.02% [cytotoxic]"}, {"smiles": "COCCN1CCN(C(=O)C2CCC(=O)N(Cc3cccc(C(F)(F)F)c3)C2)CC1", "note": "(stereo not drawn)", "activity, negative = less viability": "inactive: 0.489%"}, {"smiles": "CCN(CC)c1ccc(/C=C2\\C(=O)N(c3nnc(C)c(=O)[nH]3)N=C2C)cc1", "Potency": "inconclusive [cytotoxic, single point]"}, {"smiles": "CCOc1cc(CNc2ccc3c(c2)OCCO3)cc(Br)c1OCC", "Potency": "active: 1.84 µM"}, {"smiles": "O=C(/C=C/c1ccccc1)CC(O)(c1ccccc1)C(F)(F)F", "note": "(stereo not drawn)", "Potency": "active: 12.6 µM"}, {"smiles": "CC(CCN1C(Nc2ccccc2)=NC[C@@H]1Cc1ccccc1)c1ccccc1", "note": "(stereo partly drawn)", "activity, negative = less viability": "inactive: -1.28%"}, {"smiles": "COC(=O)c1ccc(C(=O)OC)c(NC(=O)COC(=O)C2CCC(C(C)(C)C)CC2)c1", "note": "(stereo not drawn)", "activity, negative = less viability": "inactive: -1.23%"}, {"smiles": "C1CCCCCC(NCCN2CCNCC2)CCCCC1", "Potency": "active: 20.6 µM"}, {"smiles": "CN1CCCC1(C)C(=O)NCc1ccc(F)cc1Cl", "note": "(stereo not drawn)", "Potency": "inconclusive [rising, single point]"}, {"smiles": "Cn1c(NCCc2ccncc2)nc2cc(-c3cccc(Cl)c3)sc2c1=O", "activity, negative = less viability": "inactive: 1.42%"}, {"smiles": "COc1ccc2c(c1OC)C(=O)OC2C1c2c(cc3c(c2OC)OCO3)CCN1C", "note": "(stereo not drawn)", "activity, negative = less viability": "inconclusive: -34.3% [cytotoxic]"}, {"smiles": "O=C(CCNC(=O)c1ccccc1Cl)NCCC1=CCCCC1", "activity, negative = less viability": "inactive: -0.831%"}, {"smiles": "O=C(NCCCN1CCN(c2ccccc2F)CC1)C1CCN(S(=O)(=O)N2CCOCC2)CC1", "activity, negative = less viability": "inactive: 2.28%"}, {"smiles": "CCCCNC(=O)C(NC(=O)c1cccc(C(F)(F)F)c1)C(=O)c1ccccc1", "note": "(stereo not drawn)", "activity, negative = less viability": "inactive: 13.4%"}, {"smiles": "COc1ccc(-c2c(-c3cc(OC)cc(OC)c3)n(C)c3ccc(-c4ccc5cc[nH]c5c4)cc23)cc1", "Potency": "inconclusive [rising, single point]"}, {"smiles": "CCCN1C[C@H](CSC)C[C@@H]2c3cccc4[nH]cc(c34)C[C@H]21", "Potency": "inconclusive [cytotoxic, single point]"}, {"smiles": "CCOC(=O)c1csc(NC(=O)c2ccc(S(=O)(=O)N3CCCC3)cc2)n1", "Potency": "inconclusive [cytotoxic, full curve]"}, {"smiles": "O=C1[C@H](Cc2ccccc2)NCC=CC[C@@H](c2ccc(Cl)cc2)N1Cc1ccc(Cl)cc1", "Potency": "inconclusive [cytotoxic, single point]"}, {"smiles": "O=C(NCc1ccc(Cl)c(Cl)c1)c1cc(C2CCCCN2C(=O)OCCF)on1", "note": "(stereo not drawn)", "Potency": "inconclusive [cytotoxic, single point]"}, {"smiles": "COC(=O)C1=C(C)NC(=O)NC1c1ccccc1Cl", "note": "(stereo not drawn)", "activity, negative = less viability": "inactive: -5.16%"}, {"smiles": "CC(=O)Nc1ccccc1", "activity, negative = less viability": "inactive: 15%"}, {"smiles": "C=CCn1c(=O)c2ccccc2n2c(SC(C)C(=O)Nc3nc(-c4ccccc4)cs3)nnc12", "note": "(stereo not drawn)", "activity, negative = less viability": "inactive: -4.76%"}, {"smiles": "O=C(Cn1nc(CNc2ccc(Cl)cc2)[n+]2c1CCCCC2)c1ccc(Cl)cc1", "Potency": "inconclusive [cytotoxic, partial curve]"}, {"smiles": "O=[N+]([O-])/C=C/c1cn(Cc2ccc(Cl)cc2)c2ccccc12", "Potency": "active: 16.4 µM"}, {"smiles": "COc1ccccc1NS(=O)(=O)c1cccc(C(=O)N/N=C/c2c(CO)cnc(C)c2O)c1", "Potency": "inconclusive [cytotoxic, single point]"}, {"smiles": "CC(C)N(C)c1ncnc2c1ncn2[C@H]1CN(CCN2CCOCC2)C[C@@H](CO)O1", "Potency": "inconclusive [rising, partial curve]"}, {"smiles": "CCC(O)CC(C(=O)NNc1ccccc1)C(=O)NNc1ccccc1", "note": "(stereo not drawn)", "Potency": "active: 2.59 µM"}, {"smiles": "CC(=O)Oc1c(/C=C(\\C#N)C(N)=O)[nH]c2ccccc12", "Potency": "inconclusive [cytotoxic, single point]"}, {"smiles": "Cc1noc(C)c1CSc1nc2ccccc2c(=O)n1-c1ccccc1", "Potency": "inconclusive [cytotoxic, partial curve]"}, {"smiles": "COc1cccc(C2=CC(c3cccc(OC)c3OC)n3nnnc3N2)c1", "note": "(stereo not drawn)", "Potency": "inconclusive [cytotoxic, single point]"}, {"smiles": "Nc1cccc(C(=O)O)c1", "activity, negative = less viability": "inconclusive: 30.2%"}, {"smiles": "O=C(/C=C/c1cn(CC(O)CN2CCCCC2)c2ccccc12)c1cccs1", "note": "(stereo not drawn)", "Potency": "inconclusive [cytotoxic, single point]"}, {"smiles": "O=C(CN1C(=O)C2CCCCC2C1=O)Nc1cccc([N+](=O)[O-])c1", "note": "(stereo not drawn)", "activity, negative = less viability": "inconclusive: -33.3% [cytotoxic]"}, {"smiles": "CNC(=O)c1ccsc1NC(=O)C1CCN(S(=O)(=O)c2ccc(Cl)s2)CC1", "Potency": "inconclusive [cytotoxic, single point]"}, {"smiles": "Cc1ccc(OCCn2c(=S)[nH]c3ccccc32)c(C(C)C)c1", "activity, negative = less viability": "inactive: -26.8%"}, {"smiles": "COc1cc(CNCc2ccc(OC)c(OC)c2OC)cc(OC)c1", "activity, negative = less viability": "inactive: -0.22%"}, {"smiles": "COc1ccccc1-c1nnc(NC(=O)c2ccc(S(=O)(=O)N(C)CC3CCCO3)cc2)o1", "note": "(stereo not drawn)", "activity, negative = less viability": "inactive: -18.1%"}, {"smiles": "Cc1c(N=C2N=C(NC(=O)c3ccc(F)cc3)c3ccccc32)c(=O)n(-c2ccccc2)n1C", "Potency": "inconclusive [rising, partial curve, poor fit]"}, {"smiles": "COc1ccc(C2CC(c3cccs3)n3nc(N)nc3N2)cc1", "note": "(stereo not drawn)", "activity, negative = less viability": "inactive: 3.8%"}, {"smiles": "COc1ccc(OC)c(NC(=O)Nc2nnc([C@H]3C[C@H](O)[C@@H](CO)O3)s2)c1", "Potency": "inconclusive [rising, single point]"}, {"smiles": "CCOC(=O)CN1C(=O)/C(=C/c2c(F)cccc2Cl)Oc2ccccc21", "activity, negative = less viability": "inactive: -20.6%"}, {"smiles": "Cc1cccc(C)c1NC(=O)c1sc(N)nc1-c1ccccc1", "activity, negative = less viability": "inactive: 3.37%"}, {"smiles": "CN1CCC(N(C)S(=O)(=O)c2ccc(NC(=O)Cc3ccc(F)cc3)cc2)CC1", "activity, negative = less viability": "inactive: 4.12%"}, {"smiles": "CC(C)(C)n1nnnc1C(c1ccccc1OC(F)(F)F)N1CCN(C/C=C/c2ccccc2)CC1", "note": "(stereo not drawn)", "Potency": "inconclusive [cytotoxic, single point]"}, {"smiles": "Cc1cc(O)c2c(c1O)C(=O)[C@]13C(=C2O)C(=O)[C@@H]2[C@@H](O)[C@H]1[C@@H]1[C@H](O)[C@H]3C(=O)C3=C(O)c4c(O)cc(C)c(O)c4C(=O)[C@]312", "Potency": "active: 0.731 µM"}, {"smiles": "COc1ccc(C(=O)N/N=C/c2ccc3cccc(OCc4ccccc4)c3n2)cc1", "Potency": "inconclusive [cytotoxic, single point]"}]}]}
